Measurements from the supplement of paper PMC4967469.
By IC50 is meant the dose at which the fit gives 50% viability; a fit beyond the top or the lowest dose is shown as a bound at that dose. The AUC spans the tested range (256-fold, ending at the top dose) of the same fit; the more sensitive the line, the further below 1. Any top dose called inferred was derived from the fitted curves, not read from the paper. For part of these data: An entry number marks a drug with two screens in the source, which often give different values.

Assays:
Experiment in all cases: Viability of human cancer cell lines after 72 h of drug (GDSC screen)
SB-525334 = compound: Cc1cccc(-c2[nH]c(C(C)(C)C)nc2-c2ccc3nccnc3c2)n1 [SB-525334]; settings: top dose 20 µM; top dose inferred
Experimental: (§1)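 Human cancer cell lines in 384-well plates, medium with 10% serum, drug for 72 h over a 256-fold dose range (nine 2-fold or five 4-fold steps up to the top dose). Adherent lines were fixed and stained with the nucleic acid dye Syto60, suspension lines read with resazurin; signal relative to control wells, capped at 0 and 100%. One two-parameter sigmoid per drug and line, fitted in a mixed model over all curves with the slope shared within a line.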

HG-5-113-01 = compound: CNC(=O)c1ccc(Nc2cc(Nc3ccccc3S(=O)(=O)C(C)C)c3cc[nH]c3n2)nc1 [HG-5-113-01]; settings: top dose 10 µM; top dose inferred
Experimental: as §1

VX-702 = compound: NC(=O)c1ccc(N(C(N)=O)c2c(F)cccc2F)nc1-c1ccc(F)cc1F [VX-702]; settings: top dose 2 µM; top dose inferred
Experimental: as §1

Olaparib = compound: O=C(c1cc(Cc2n[nH]c(=O)c3ccccc23)ccc1F)N1CCN(C(=O)C2CC2)CC1 [Olaparib]
Experimental: as §1

Shikonin = compound: CC(C)=CC[C@@H](O)C1=CC(=O)c2c(O)ccc(O)c2C1=O [Shikonin]; settings: top dose 16 µM; top dose inferred
Experimental: as §1

BMS-536924 = compound: Cc1cc(N2CCOCC2)cc2[nH]c(-c3c(NC[C@@H](O)c4cccc(Cl)c4)cc[nH]c3=O)nc12 [BMS-536924]; settings: top dose 4 µM; screen: GDSC drug entry 1091; top dose inferred
Experimental: as §1

[1] = top dose 5 µM, screen: GDSC drug entry 1017, top dose inferred
[2] = top dose 10 µM, screen: GDSC drug entry 1495

Cell Line | AUC (SB-525334) | IC50 (SB-525334) | AUC (HG-5-113-01) | IC50 (HG-5-113-01) | AUC (VX-702) | IC50 (VX-702) | AUC (Olaparib; [1]) | IC50 (Olaparib; [1]) | AUC (Shikonin) | IC50 (Shikonin) | AUC (BMS-536924) | IC50 (BMS-536924) | AUC (Olaparib; [2]) | IC50 (Olaparib; [2])
A2058 (melanoma, adherent) | 0.969 | > 20 µM | 0.738 | 2.73 µM | 0.97 | > 2 µM | 0.921 | > 5 µM | 0.489 | 0.934 µM | 0.964 | > 4 µM |  | 
ABC-1 (lung adenocarcinoma, adherent) | 0.839 | 17.8 µM | 0.562 | 0.955 µM | 0.982 | > 2 µM | 0.953 | > 5 µM | 0.451 | 0.717 µM | 0.681 | 0.898 µM | 0.964 | > 10 µM
DMS-53 (small cell lung carcinoma, adherent) | 0.988 | > 20 µM | 0.891 | > 10 µM | 0.988 | > 2 µM | 0.988 | > 5 µM | 0.67 | 3.09 µM | 0.942 | > 4 µM | 0.966 | > 10 µM
EPLC-272H (lung squamous cell carcinoma, adherent) | 0.947 | > 20 µM | 0.739 | 3.33 µM | 0.983 | > 2 µM | 0.983 | > 5 µM | 0.628 | 2.36 µM | 0.835 | 3.12 µM | 0.962 | > 10 µM
G-MEL (melanoma, adherent) | 0.784 | 8.41 µM | 0.775 | 3.9 µM | 0.936 | > 2 µM | 0.91 | > 5 µM | 0.393 | 0.51 µM | 0.939 | > 4 µM | 0.984 | > 10 µM
GP5d (large intestine, adherent) | 0.991 | > 20 µM | 0.806 | 4.47 µM |  |  |  |  | 0.536 | 1.24 µM | 0.917 | > 4 µM | 0.989 | > 10 µM
H2722 (mesothelioma, adherent) | 0.905 | > 20 µM | 0.782 | 5.03 µM | 0.984 | > 2 µM | 0.984 | > 5 µM | 0.584 | 1.78 µM | 0.97 | > 4 µM | 0.942 | > 10 µM
H2803 (mesothelioma, adherent) | 0.937 | > 20 µM | 0.871 | > 10 µM |  |  |  |  | 0.512 | 1.08 µM | 0.919 | > 4 µM | 0.975 | > 10 µM
H2804 (mesothelioma, adherent) | 0.967 | > 20 µM | 0.824 | 6.75 µM |  |  |  |  | 0.634 | 2.44 µM | 0.914 | > 4 µM | 0.957 | > 10 µM
H2810 (mesothelioma, adherent) |  |  | 0.861 | 9.94 µM |  |  |  |  |  |  | 0.878 | > 4 µM | 0.958 | > 10 µM
HSC-4 (head and neck, adherent) | 0.964 | > 20 µM | 0.625 | 1.55 µM | 0.952 | > 2 µM | 0.957 | > 5 µM | 0.544 | 1.37 µM | 0.755 | 1.78 µM | 0.901 | > 10 µM
